The results in this text go back to PubChem BioAssay AID485344 (National Center for Advancing Translational Sciences (NCATS), 2010).

Structures are written as SMILES. Several values for one entry are separate records, joined by “and”; a condition that tells them apart may be missing. Equal values may be shown once. About 6,900 (2%) of roughly 340,000 compounds were called active. No stated cut-off is given here; in the data, active means inhibition above about 30%; inactive means below that, where a call was filed. The list shows a part of the results, in another mix than the full data. Entries without a call were filed so in the source.

UniProt P14416, sequence (P14416 whole entry, looked up): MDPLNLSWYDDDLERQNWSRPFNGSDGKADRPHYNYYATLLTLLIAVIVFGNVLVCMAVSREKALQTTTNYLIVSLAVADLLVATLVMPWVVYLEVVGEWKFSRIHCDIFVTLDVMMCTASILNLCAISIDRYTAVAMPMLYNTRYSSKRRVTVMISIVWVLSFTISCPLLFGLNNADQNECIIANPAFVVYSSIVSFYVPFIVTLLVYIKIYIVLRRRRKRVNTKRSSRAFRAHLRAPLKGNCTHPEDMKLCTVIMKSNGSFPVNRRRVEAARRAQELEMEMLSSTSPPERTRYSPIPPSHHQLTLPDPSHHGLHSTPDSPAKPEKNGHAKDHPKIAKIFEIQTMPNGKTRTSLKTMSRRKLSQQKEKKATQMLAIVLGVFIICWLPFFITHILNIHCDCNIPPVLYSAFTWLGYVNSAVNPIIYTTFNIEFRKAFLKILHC

The assay has as its target D(2) dopamine receptor (Homo sapiens) (UniProt P14416). As to the kind of experiment: HTS Assay for Allosteric Antagonists of the Human D2 Dopamine Receptor: Primary Screen for Antagonists. Further: 0% is about no effect. The note with it: HEK293 TREx D2 cells, calcium flux, dopamine EC80; at 10 µM; stronger effect = higher value. The method, boiled down:
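Overnight-induced (tetracycline, 30 C) HEK293 T-REx cells carrying force-coupled D2 receive a no-wash calcium dye, then compound, then EC80 dopamine at 180 s; signals are read kinetically throughout.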
For the molecule `O=C(CSc1cn(CC(=O)N2CCCC2)c2ccccc12)Nc1ccc(Cl)cc1`, the inhibition was -15.2%.

For `CCN(CC)CCn1c(NC(=O)c2ccc(C(F)(F)F)cc2)nc2ccccc21`, the inhibition was active: 88.3%.

As to `CCC(CNc1cc(OC)cc2cccnc12)NC1CCCCC1` (stereo not given), the inhibition is active: 47.1%.

Regarding `Cc1cccc(NC(=O)Cn2cc(C(=O)C3CCCCC3)c3ccccc32)c1`, the inhibition is -1.54%.

`COc1cccc(CNC(=O)c2cnc3sc(N4CCCC4)nn3c2=O)c1OC`: the inhibition is -14.7%.

For `CCOC(=O)COc1ccc(C2C(C(=O)OC)=C(C)NC3=C2C(=O)c2ccccc23)cc1Cl` (stereo not given), the inhibition stood at 12.8%.

As for `COc1cc2c(-c3cccc(Cl)c3)nc3c(c(C)nn3-c3ccccc3)c2cc1OC`, the inhibition came out at 23.4%.

`COc1ccc(Cn2c(CCC(=O)NCc3ccc(Cl)cc3)nc3cccnc32)cc1`: the inhibition came to 9.9%.

For `CCOC(=O)CC(NC(=O)CCc1c(C)nc2c(-c3ccccc3)c(C)nn2c1C)c1ccc(OC(C)C)cc1` (stereo not given), the inhibition was -8.86%.

On to `CSc1ccc(CCNC(=O)NCc2noc3ccccc23)cc1`, for which the inhibition is -6.02%.

On to `COc1cccc2sc(N(Cc3cccnc3)C(=O)c3ccc4c(c3)OCCO4)nc12`, for which the inhibition is 6%.

Turning to `CC(NC(=O)C1CCN(S(=O)(=O)Cc2ccccc2)CC1)c1ccccc1` (stereo not given), the inhibition is -12.6%.

Consider `COc1ccc(C2NC(=O)N(C)C3=C2C(=O)N(c2ccc(Br)cc2)C3)cc1` (stereo not given), for which the inhibition came out at 9.63%.

Regarding `CN(C)c1ccc(CNC(=O)C2CCN(c3nc4ccccc4[nH]3)CC2)cc1`, the inhibition turned out to be 7.26%.

`CCCc1nn2c(=O)cc(COC(=O)c3ccc(NC(=O)COc4ccc(F)cc4)cc3)nc2s1`: the inhibition stood at 2.4%.

For the molecule `Cc1cc(S(=O)(=O)N2CCN(Cc3noc(CCC(=O)N4CCCCC4)n3)CC2)ccc1F`, the inhibition is 5.97%.

Turning to `COC(=O)c1cc2occc2n1Cc1nc(-c2ccccc2)oc1C`, the inhibition was found to be 6.61%.

In the case of `CC(C)c1ccc(S(=O)(=O)N2CCC(n3c(C(F)(F)F)nc4cccnc43)CC2)cc1`, the inhibition came out at 9.94%.

With `COc1ccc(NC(=O)C2CCN(S(=O)(=O)c3cccc(-c4noc(C)n4)c3)CC2)cc1OC`, the inhibition is -17.1%.

In the case of `CCOC(=O)c1oc2ccc(S(=O)(=O)n3nc(-c4ccc(C)cc4)cc3N)cc2c1C`, the inhibition is active: 34.6% and -7.8%.

On to `CCOCCn1ccc2c(OCC(=O)Nc3ccc(C(N)=O)cc3)cccc2c1=O`, for which the inhibition is -22.3%.

On to `CC(C)c1ccc(CN(C(=O)c2cc3ccccc3oc2=O)C2CCS(=O)(=O)C2)cc1` (stereo not given), for which the inhibition was 4.68%.

For `O=C(CN1C(=O)COc2ccccc21)NCCCN1CCc2ccccc2C1`, the inhibition is active: 57.7%.

As for `N#Cc1ccc(-c2cccs2)nc1SCC(=O)Nc1cccc(C(F)(F)F)c1`, the inhibition was -1.86%.

As to `CCCCCn1c(=O)[nH]c2cc(C(=O)Nc3ccc(F)c(F)c3)ccc2c1=O`, the inhibition is 13.4%.

Turning to `Cc1cc(SCC(=O)NCc2ccc(Cl)cc2)nc(=O)[nH]1`, the inhibition is -15.1%.

Consider `CCN(CC)CCOC(=O)c1ccc(NC(=O)c2cc3c(=O)n(CC)c4ccccc4c3s2)cc1`, for which the inhibition amounted to 4.71%.

As to `Cc1ccccc1C(=O)Nc1cccc(OCc2cc(=O)n3c(C)csc3n2)c1`, the inhibition was 11.6%.

In the case of `COc1cc(C(=O)NCC(c2cccs2)N(C)C)cc(Cl)c1OC(C)C` (stereo not given), the inhibition is active: 34.5%.

Take `CCN1CCN(Cc2c(O)ccc3c(C)c(-c4ccc(OC)cc4)c(=O)oc23)CC1`: the inhibition amounted to 1.82%.

As for `Cc1cccc(NC(=O)c2cc(S(=O)(=O)NCCc3ccccc3)ccc2F)c1C`, the inhibition came out at 20.2%.

Turning to `COc1ccccc1C1c2c(-c3ccc(Cl)cc3)n[nH]c2C(=O)N1c1ccc(C)cc1` (stereo not given), the inhibition was found to be 22.2%.

For the molecule `CCCNC(=O)CSc1nc2ccc(OCC)cc2s1`, the inhibition is active: 35.2%.

Regarding `Cc1ccc(S(=O)(=O)N2CCC(C(=O)NCc3ccccc3Cl)CC2)cc1`, the inhibition worked out at 7.74%.

For `COc1ccc(NC(=O)C2=CC(c3ccco3)=NS(=O)(=O)N2C)cc1`, the inhibition was -1.84%.

On to `Cc1ccc(/C=N/N2CCN(Cc3ccc(C)cc3)CC2)cc1`, for which the inhibition is active: 54.9%.

In the case of `COc1ccc2nc3sc(C(=O)NCCN4CCc5ccccc5C4)cc3cc2c1`, the inhibition is active: 53.5%.

Turning to `CCS(=O)(=O)c1nc(S(=O)(=O)c2ccc(Cl)cc2)c(NCc2ccccc2Cl)s1`, the inhibition stood at 1.03%.

Consider `Cc1ccccc1-c1nc2cc(NC(=O)COc3ccc(F)cc3)ccc2o1`, for which the inhibition was 7.63%.

In the case of `CCOC(=O)c1c(-c2ccccc2)csc1NC(=O)c1cc(-c2ccc(Cl)cc2)on1`, the inhibition stood at 4.87%.

For `CC1=C(C(=O)Nc2ccc(C)cc2C)C(c2ccccc2)n2ncc(C(=O)Nc3ccccc3)c2N1` (stereo not given), the inhibition is -11.8%.

On to `CCOC(=O)c1sc(NC(=O)c2cc(-c3ccc(F)cc3)on2)c(C(=O)OCC)c1C`, for which the inhibition was -8.49%.

For the molecule `COC(=O)c1ccc2c(=O)n(CCCCCC(=O)N3CCN(c4ccc(OC)cc4)CC3)c(=O)[nH]c2c1`, the inhibition amounted to 16.7%.

In the case of `Cc1ccc(NC(=O)C2CCCN(S(=O)(=O)c3cccc4cccnc34)C2)c(C)c1` (stereo not given), the inhibition was -1.41%.

As to `Cc1c(CC(=O)NCCc2ccc(Cl)cc2)c(=O)oc2c(C)c3occ(C(C)(C)C)c3cc12`, the inhibition was -6.84%.

Regarding `CCOC(=O)CSc1nc2ccc(NC(=O)c3ccccc3F)cc2s1`, the inhibition was determined as 4.15%.

On to `CCc1ccc(-n2nc3ccc(NC(=O)c4ccc(C#N)cc4F)cc3n2)cc1`, for which the inhibition was 15.2%.

`COc1cccc(CNC(=O)C2CCN(c3nnc(-n4c(C)ccc4C)s3)CC2)c1`: the inhibition stood at 10.7%.

With `CCC(CC)C(=O)Nc1cccc(-c2nc3ccccc3s2)c1`, the inhibition turned out to be 5.1%.

Consider `CCOc1ccc(-c2nnc(SCC(=O)NCc3ccc(C)cc3)nc2-c2ccc(OCC)cc2)cc1`, for which the inhibition is -11.8%.

Take `Fc1ccc(-c2cn3cc(Cc4ccc(Cl)cc4)sc3n2)cc1`: the inhibition is -1.49%.

Take `CCC(C(=O)Nc1cc(-c2nc3cccnc3s2)ccc1C)c1ccccc1` (stereo not given): the inhibition is -6.18%.

As for `Cc1ccc(Cl)cc1NC(=O)Cn1c(=O)c2ccccc2n2nncc12`, the inhibition was -1.61%.

Turning to `CCOc1ccccc1C1CC(=O)Oc2c1c(=O)n(C)c1ccccc21` (stereo not given), the inhibition is -2.55%.

Consider `Cc1[nH]c(=O)[nH]c(=O)c1S(=O)(=O)N1CCCC(C(=O)NCCc2ccc(Cl)cc2)C1` (stereo not given), for which the inhibition is active: 65.5%.

With `O=C(NCCC1=CCCCC1)c1ccc2c(c1)ncn2-c1ccc(F)c(F)c1`, the inhibition is 2.44%.

For the molecule `O=c1c2c(-c3ccc(Cl)cc3)ccnc2[nH]n1-c1ccccc1`, the inhibition is -20%.

`CC(=O)c1ccc(N2CCN(S(=O)(=O)c3ccc4[nH]c5c(c4c3)CCCC5)CC2)cc1`: the inhibition came out at 2.27%.

Take `CCN(Cc1ccccc1)Cc1c(O)ccc2c(=O)c(-c3ccccc3Cl)c(C(F)(F)F)oc12`: the inhibition stood at 0.355%.

Take `CCc1ccc(Nc2nc(N)nc(CSc3nc4ccccc4s3)n2)cc1`: the inhibition worked out at 15%.

In the case of `O=C(NCc1cccc(F)c1)c1cccc(NC(=O)c2nsc3ccccc23)c1`, the inhibition came out at 26.2%.

In the case of `CCOCc1cc(CN2CCN(c3cccc(Cl)c3)CC2)c(O)c2ncccc12`, the inhibition was 18.8%.

Take `CCCN(CCC)C(=O)CSc1nc2sc3c(c2c(=O)n1-c1ccccc1)CCN(C(C)=O)C3`: the inhibition was -6.32%.

On to `CC(=O)Nc1cccc(NC(=O)c2c(-c3ccccc3)c(-c3ccccc3)nn(C)c2=O)c1`, for which the inhibition was -19.8%.

In the case of `Cc1nn(C)c2c1c(-c1ccccc1)cc(=O)n2C(C)C(=O)NCc1ccc(F)cc1` (stereo not given), the inhibition was 5.13%.

Take `CCN1CCN(C(c2cccc(F)c2)c2c(O)cc(C)n(Cc3ccco3)c2=O)CC1` (stereo not given): the inhibition was -4.72%.

`O=C1CC(c2ccccc2)Cc2[nH]c(=O)c(-c3nc(-c4ccc(Cl)cc4)cs3)cc21` (stereo not given): the inhibition was -6.33%.

`CC(=O)c1cccc(NC(c2ccc(F)cc2)c2nnc(-c3ccccc3)o2)c1` (stereo not given): the inhibition is 21.1%.

As to `CCSc1nnc2c(n1)OC(CC)N(C(C)=O)c1ccccc1-2` (stereo not given), the inhibition is -5.18%.

With `Cc1ccc(-n2nnnc2CNC(=O)C(C)C)cc1C`, the inhibition stood at 9.74%.

On to `COc1ccc(-c2cn3nc(N4CCCC(C(=O)NCc5ccccc5Cl)C4)sc3n2)cc1` (stereo not given), for which the inhibition turned out to be 17.5%.

`Cc1cccc(CNC(=O)CCn2ccc3cc(S(=O)(=O)N4CCCC4)ccc32)c1`: the inhibition is -9.54%.

For `COc1ccc(OC)c(CCNC(=O)c2cnn(-c3ccccc3)c2C2CCN(C(=O)OC(C)(C)C)CC2)c1`, the inhibition is -5.5%.

Regarding `Cc1ccccc1CSc1nc2c(sc3ccccc32)c(=O)n1CCCOC(C)C`, the inhibition is -0.113%.

`COc1cc(OC)cc(N2CCN(S(=O)(=O)c3ccc(-n4cnnn4)cc3)CC2)c1`: the inhibition is 10.2% and active: 46.3%.

As to `COC(=O)c1cc2oc3ccccc3c2n1Cc1cc(C)ccc1C`, the inhibition was -1.61%.

Turning to `CCOC(=O)C1CCCN(Cc2nc(N)nc(Nc3ccccc3)n2)C1` (stereo not given), the inhibition is active: 46.4%.

In the case of `CCOC(=O)CC(NC(=O)N1CCC(CN2CCC(C)CC2)CC1)c1ccccc1` (stereo not given), the inhibition was -12.3%.

Regarding `Cc1cccc(C)c1Nc1c(-c2ccsc2)nc2ccc(Cl)cn12`, the inhibition came to 5.61%.

For `COC(=O)c1c(-c2ccc(Cl)cc2)noc1N1CCN(c2cccc(C(F)(F)F)c2)CC1`, the inhibition was -9.73%.

Turning to `CCc1ccccc1NC(=O)NCc1ccc2c(c1)CCN2C(=O)c1ccccc1`, the inhibition was determined as 1.72%.

For the molecule `O=C(Nc1ccccc1C(=O)OCc1cc(=O)n2c3c(sc2n1)CCCC3)c1cccc(Cl)c1`, the inhibition is 4.98%.

On to `CCCn1ccc2c(OCC(=O)NCc3ccccc3Cl)cccc2c1=O`, for which the inhibition came out at 1.39%.

For `O=C(CSc1nccn1Cc1ccccc1)NCc1ccccc1Cl`, the inhibition turned out to be 10.6%.

As for `CCOc1ccc(S(=O)(=O)N(CC(=O)NCCSc2ccccc2)c2ccccc2)cc1`, the inhibition was -9.82%.

In the case of `CCN(c1ccc(OC)cc1)S(=O)(=O)c1ccc2[nH]c(=O)ccc2c1`, the inhibition is 2.52%.

Turning to `O=C(NCc1ccc(Cl)cc1)C1CCCN(c2nc3ccccc3n3cccc23)C1` (stereo not given), the inhibition is 8.98%.

Take `O=C(Cn1c2ncccc2c(=O)n1-c1ccccc1)Nc1ccc(F)c(F)c1`: the inhibition came out at 0.0323%.

As for `Cc1cc(N2CCCCC2)nc2ccc(NC(=O)/C=C/c3ccccc3Cl)cc12`, the inhibition is -4.47%.

`CCn1cc(C(=O)OCC(=O)Nc2ccc(F)cc2F)c(=O)c2ccc(C)nc21`: the inhibition was -18.4%.

As to `Cc1cccc(-c2nc(Cn3c(=O)cc(-c4ccccc4)c4c(C)nn(C)c43)c(C)o2)c1`, the inhibition was -2.78%.

Regarding `CCCn1c2ccccc2c2cnn(CC(=O)NCCc3ccccc3)c(=O)c21`, the inhibition was 6.03%.

For the molecule `COC(=O)c1ccc(Cn2c(=O)cc(C(F)(F)F)c3c(C)nn(C)c32)cc1`, the inhibition came to 6.59%.

With `CCc1ccc(Nc2ncnc3c2cnn3-c2cc(Cl)ccc2C)cc1`, the inhibition was -7.27%.

`COc1cccc(CNC(=O)C(NS(=O)(=O)c2ccc3c(c2)CCN3C(C)=O)C(C)C)c1` (stereo not given): the inhibition is 3.68%.

As usually defined, the inhibition is the drop in the measured response relative to a control, in per cent.
